Source: the supplement of paper PMC10037445
Whole data set: some 2,900 compounds, median “NF-kB SEAP reporter activity, fold change vs agonist alone” near 0.99, cut for the highest 2% near 2.6. Some of the results follow.

What was measured:
RAW-Dual [1] = assay: NF-kB SEAP reporter activity, fold change vs agonist alone; higher = enhanced NF-kB activity
Method in brief: (§1)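 Library stock was pin-tooled at 50 nL into 384-well plates of RAW-Dual macrophages (50,000 cells/well, DMEM), followed 1 h later by a PRR agonist, and the cells were kept at 37 °C, 5% CO2. Supernatant collected after 20 hours was read for IRF by QuantiLuc luminescence and for NF-κB by QuantiBlue absorbance at 620 nm. Reporter activity is fold change over agonist-alone wells, and a well counted as cytotoxic when its IncuCyte confluency was below 70% of agonist controls in both mask sets.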

RAW-Dual [2] = assay: NF-kB SEAP reporter activity, fold change vs agonist alone; cytotoxicity flag (confluency mask): not cytotoxic; higher = enhanced NF-kB activity
Method in brief: as §1

RAW-Dual [3] = assay: NF-kB SEAP reporter activity, fold change vs agonist alone; cytotoxicity flag (confluency mask): cytotoxic (confluency <70% of control); higher = enhanced NF-kB activity
Method in brief: as §1

[4] = library stock concentration (final ~1000-fold dilution): 10 mM, cytotoxicity flag (confluency mask): not cytotoxic, agonist: Imiquimod (TLR7) […]
[5] = library stock concentration (final ~1000-fold dilution): 10 mM, cytotoxicity flag (confluency mask): not cytotoxic, agonist: MPLA (TLR4) […]
[6] = agonist: ODN 1826 (TLR9) 0.5 ug/mL
[7] = agonist: Pam2CSK4 (TLR2/6) 0.1 ug/mL
[8] = agonist: Pam3CSK4 (TLR2/1) 0.1 ug/mL

CC(C)c1cccc(O)c(=O)c1
NF-kB SEAP reporter activity (RAW-Dual [1]; [4]): 0.881
NF-kB SEAP reporter activity (RAW-Dual [1]; [5]): 0.956

CC(C)c1cccc(O)c(=O)c1 (library stock concentration (final ~1000-fold dilution): 10 mM)
NF-kB SEAP reporter activity (RAW-Dual [2]; agonist: LPS (TLR4) 0.1 ug/mL): 0.57
NF-kB SEAP reporter activity (RAW-Dual [2]; [6]): 0.772
NF-kB SEAP reporter activity (RAW-Dual [2]; [7]): 0.42
NF-kB SEAP reporter activity (RAW-Dual [2]; [8]): 0.431

Cc1csc(-c2nnc(Nc3ccc(Oc4ncccc4-c4ccnc(N)n4)cc3)c3ccccc23)c1 (library stock concentration (final ~1000-fold dilution): 10 mM)
NF-kB SEAP reporter activity (RAW-Dual [3]; agonist: LPS (TLR4) 0.1 ug/mL): 0.215
NF-kB SEAP reporter activity (RAW-Dual [3]; [6]): 0.233
NF-kB SEAP reporter activity (RAW-Dual [3]; [7]): 0.123
NF-kB SEAP reporter activity (RAW-Dual [3]; [8]): 0.212

Cc1csc(-c2nnc(Nc3ccc(Oc4ncccc4-c4ccnc(N)n4)cc3)c3ccccc23)c1
NF-kB SEAP reporter activity (RAW-Dual [1]; library stock concentration (final ~1000-fold dilution): 10 mM, cytotoxicity flag (confluency mask): cytotoxic (confluency <70% of control), agonist: Imiquimod (TLR7) […]): 0.335
NF-kB SEAP reporter activity (RAW-Dual [1]; library stock concentration (final ~1000-fold dilution): 10 mM, cytotoxicity flag (confluency mask): cytotoxic (confluency <70% of control), agonist: MPLA (TLR4) […]): 0.28

O=c1ncccn1C1OC(CO)C(O)C1O (centres undefined)
NF-kB SEAP reporter activity (RAW-Dual [1]; [4]): 0.949
NF-kB SEAP reporter activity (RAW-Dual [1]; [5]): 0.947

O=c1ncccn1C1OC(CO)C(O)C1O (centres undefined) (library stock concentration (final ~1000-fold dilution): 10 mM)
NF-kB SEAP reporter activity (RAW-Dual [2]; agonist: LPS (TLR4) 0.1 ug/mL): 1.04
NF-kB SEAP reporter activity (RAW-Dual [2]; [6]): 0.93
NF-kB SEAP reporter activity (RAW-Dual [2]; [7]): 0.908
NF-kB SEAP reporter activity (RAW-Dual [2]; [8]): 0.896

O=C(O)c1cc2cccc([N+](=O)[O-])c2[nH]1
NF-kB SEAP reporter activity (RAW-Dual [1]; [4]): 0.921
NF-kB SEAP reporter activity (RAW-Dual [1]; [5]): 1.07

O=C(O)c1cc2cccc([N+](=O)[O-])c2[nH]1 (library stock concentration (final ~1000-fold dilution): 10 mM)
NF-kB SEAP reporter activity (RAW-Dual [2]; agonist: LPS (TLR4) 0.1 ug/mL): 1.15
NF-kB SEAP reporter activity (RAW-Dual [2]; [6]): 0.95
NF-kB SEAP reporter activity (RAW-Dual [2]; [7]): 1.03
NF-kB SEAP reporter activity (RAW-Dual [2]; [8]): 1.07

CCCCCCCCCCCCCCCC(=O)OCC(O)C1OC(O)=C(O)C1=O (centres undefined)
NF-kB SEAP reporter activity (RAW-Dual [1]; [4]): 0.898
NF-kB SEAP reporter activity (RAW-Dual [1]; [5]): 1.01

CCCCCCCCCCCCCCCC(=O)OCC(O)C1OC(O)=C(O)C1=O (centres undefined) (library stock concentration (final ~1000-fold dilution): 10 mM)
NF-kB SEAP reporter activity (RAW-Dual [2]; agonist: LPS (TLR4) 0.1 ug/mL): 1.15
NF-kB SEAP reporter activity (RAW-Dual [2]; [6]): 0.825
NF-kB SEAP reporter activity (RAW-Dual [2]; [7]): 0.949
NF-kB SEAP reporter activity (RAW-Dual [2]; [8]): 0.67

CC1CN(CC(Cc2ccccc2)C(=O)NCC(=O)O)CCC1(C)c1cccc(O)c1.O.O (centres undefined)
NF-kB SEAP reporter activity (RAW-Dual [1]; [4]): 0.939
NF-kB SEAP reporter activity (RAW-Dual [1]; [5]): 1.05

CC1CN(CC(Cc2ccccc2)C(=O)NCC(=O)O)CCC1(C)c1cccc(O)c1.O.O (centres undefined) (library stock concentration (final ~1000-fold dilution): 10 mM)
NF-kB SEAP reporter activity (RAW-Dual [2]; agonist: LPS (TLR4) 0.1 ug/mL): 0.968
NF-kB SEAP reporter activity (RAW-Dual [2]; [6]): 0.969
NF-kB SEAP reporter activity (RAW-Dual [2]; [7]): 0.985
NF-kB SEAP reporter activity (RAW-Dual [2]; [8]): 1.11

Cc1ccccc1C(OCCN(C)C)c1ccccc1.Cl (centres undefined) (library stock concentration (final ~1000-fold dilution): 10 mM)
NF-kB SEAP reporter activity (RAW-Dual [2]; agonist: LPS (TLR4) 0.1 ug/mL): 1.29
NF-kB SEAP reporter activity (RAW-Dual [2]; [6]): 0.935
NF-kB SEAP reporter activity (RAW-Dual [2]; [7]): 0.934
NF-kB SEAP reporter activity (RAW-Dual [2]; [8]): 0.932

Cc1ccccc1C(OCCN(C)C)c1ccccc1.Cl (centres undefined)
NF-kB SEAP reporter activity (RAW-Dual [1]; [4]): 1.38
NF-kB SEAP reporter activity (RAW-Dual [1]; [5]): 1.13

CCNC1CC(C)S(=O)(=O)c2sc(S(N)(=O)=O)cc21.Cl (centres undefined) (library stock concentration (final ~1000-fold dilution): 10 mM water)
NF-kB SEAP reporter activity (RAW-Dual [2]; agonist: LPS (TLR4) 0.1 ug/mL): 1.49
NF-kB SEAP reporter activity (RAW-Dual [2]; [6]): 1.13
NF-kB SEAP reporter activity (RAW-Dual [2]; [7]): 1.09
NF-kB SEAP reporter activity (RAW-Dual [2]; [8]): 0.997

CCNC1CC(C)S(=O)(=O)c2sc(S(N)(=O)=O)cc21.Cl (centres undefined)
NF-kB SEAP reporter activity (RAW-Dual [1]; library stock concentration (final ~1000-fold dilution): 10 mM water, cytotoxicity flag (confluency mask): not cytotoxic, agonist: Imiquimod (TLR7) […]): 0.908
NF-kB SEAP reporter activity (RAW-Dual [1]; library stock concentration (final ~1000-fold dilution): 10 mM water, cytotoxicity flag (confluency mask): not cytotoxic, agonist: MPLA (TLR4) […]): 0.982

O=c1cc(-c2ccc(O)cc2)oc2cc(O[C@@H]3O[C@H](CO)[C@@H](O)[C@H](O)[C@H]3O)cc(O)c12
NF-kB SEAP reporter activity (RAW-Dual [1]; [4]): 1.12
NF-kB SEAP reporter activity (RAW-Dual [1]; [5]): 1.13

O=c1cc(-c2ccc(O)cc2)oc2cc(O[C@@H]3O[C@H](CO)[C@@H](O)[C@H](O)[C@H]3O)cc(O)c12 (library stock concentration (final ~1000-fold dilution): 10 mM)
NF-kB SEAP reporter activity (RAW-Dual [2]; agonist: LPS (TLR4) 0.1 ug/mL): 1.3
NF-kB SEAP reporter activity (RAW-Dual [2]; [6]): 1.28
NF-kB SEAP reporter activity (RAW-Dual [2]; [7]): 1.33
NF-kB SEAP reporter activity (RAW-Dual [2]; [8]): 1.18
